In PubChem BioAssay AID1030 (National Center for Advancing Translational Sciences (NCATS), 2008):
Among all 220,000 compounds or so, about 16,000 (7.3%) were called active. Inconclusive means that the source gave no clear call. Such entries were picked first, then a sample of the others. Calls come from the whole dose curve; as a rule, active = well fitted inhibition curve with a large enough effect (not every such curve was filed as active); inconclusive = small, poorly fitted or top-dose-only effect, or another doubt; inactive = no such curve, though single readings can be large or run the other way. Potencies beside an inconclusive call are fits to weak or partial responses and may not hold up.

biological target: Aldehyde dehydrogenase 1A1 (Homo sapiens) (UniProt P00352); assay: qHTS Assay for Inhibitors of Aldehyde Dehydrogenase 1 (ALDH1A1); details: Purified ALDH1A1, NADH fluorescence, propionaldehyde substrate; series mostly up to 75.3 µM; activity, negative = inhibition: at the top concentration;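 for activity, negative = inhibition: plate controls were no enzyme wells and a reference inhibitor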
UniProt P00352, sequence (P00352 whole entry, looked up): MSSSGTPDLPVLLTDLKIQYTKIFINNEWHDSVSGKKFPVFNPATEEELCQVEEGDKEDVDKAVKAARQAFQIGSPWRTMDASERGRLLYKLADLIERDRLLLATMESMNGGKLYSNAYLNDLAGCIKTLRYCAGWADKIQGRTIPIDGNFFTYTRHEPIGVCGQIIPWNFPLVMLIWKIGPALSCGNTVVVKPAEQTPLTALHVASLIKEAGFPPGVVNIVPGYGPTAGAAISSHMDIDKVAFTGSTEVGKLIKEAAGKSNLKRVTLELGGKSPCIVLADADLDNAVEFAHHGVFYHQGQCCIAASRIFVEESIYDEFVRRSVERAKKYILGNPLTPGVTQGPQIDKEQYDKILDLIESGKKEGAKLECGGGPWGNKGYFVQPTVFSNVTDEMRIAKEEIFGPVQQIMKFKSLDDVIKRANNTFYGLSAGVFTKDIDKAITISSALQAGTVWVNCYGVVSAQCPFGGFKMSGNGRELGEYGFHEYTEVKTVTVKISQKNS
Potency is the fitted concentration of half-maximal effect; tags give direction and shape of the fitted curve.

Potency, inconclusive:
O=C(CSc1nnc(-c2ccccc2F)n1CCc1ccccc1)Nc1ccc2[nH]c(=O)[nH]c2c1 31.6 µM [inhibitor, single point]
CC(c1ccccn1)N(Cc1ccco1)C(=S)Nc1cccc(F)c1 (centres undefined) 35.5 µM [inhibitor, single point]
CC(NC(=O)C1CCC(CNS(=O)(=O)c2ccccc2)CC1)c1ccc2c(c1)OCCO2 (centres undefined) 25.1 µM [inhibitor, single point]
CCCn1nc(C(=O)Nc2ccc3nc(C)sc3c2)c2ccccc2c1=O 39.8 µM [inhibitor, single point]
COc1ccccc1NC(=O)CSc1nc(O)cc(=O)n1-c1ccccc1OC 44.7 µM [inhibitor, single point]
COC(=O)c1ccccc1N=C(SC)N(C)C 35.5 µM [inhibitor, single point]
C/C(CC(=O)Nc1ccc(N(C)C)cc1)=N\NC(=O)C(=O)NCc1ccccc1 37.7 µM [inhibitor, single point]
C=CCn1c(SCC(=O)Nc2ccc(C(=O)OCC)cc2)nnc1-c1sc(N)nc1C 39.8 µM [inhibitor, single point]
COC(=O)C1=CN(CC2CCCO2)C=C(C(=O)OC)C1c1cccc(O)c1 (centres undefined) 35.5 µM [inhibitor, partial curve]
Cc1ccc2oc(-c3cccc(NC(=S)NC(=O)/C=C/c4ccco4)c3)nc2c1 35.5 µM [inhibitor, single point]
CN(CCc1ccccn1)S(=O)(=O)c1ccc2c3c(cccc13)C(=O)N2 35.5 µM [inhibitor, partial curve]
Cc1ccc(NC(=O)c2ccccc2)cc1-n1cnnn1 37.7 µM [inhibitor, single point]
CCc1cc(C(=O)N2CCc3c([nH]c4ccccc34)C2c2ccc(OC)cc2F)no1 (centres undefined) 23.8 µM [inhibitor, single point]
CC(C)CNC(=O)C1C2C=CC(C2)C1C(=O)O (centres undefined) 39.8 µM [inhibitor, single point]
O=C(CN1C2CCCC1CC(NC(=O)c1ccco1)C2)Nc1ccccc1 (centres undefined) 17.8 µM [inhibitor, partial curve, poor fit]
CCOc1ccc(C(=O)N2CCSC2=S)cc1 20 µM [inhibitor, single point]
Fc1ccc(/C=C\c2nccc3c2[nH]c2ccccc23)cc1 14.1 µM [inhibitor, partial curve]
COc1nc(N=C(N)N)nc2c(C)cccc12 25.1 µM [inhibitor, single point]
CC1(C)CC(CC(=O)NC(=S)Nc2ccc([N+](=O)[O-])cc2)C(=O)O1 (centres undefined) 22.4 µM [inhibitor, partial curve]
COC(=O)Nc1ccc2c(c1)ncn2C1CCCCC1 39.8 µM [inhibitor, single point]
C/C(=C\C(=O)c1cccnc1)Nc1ccc(O)cc1 39.8 µM [inhibitor, single point]
O=C(CN1c2ccccc2Sc2ccccc21)NNC(=S)Nc1ccc(Cl)cc1Cl 12.6 µM [inhibitor, partial curve]
O=C(c1ccc(COc2ccccc2[N+](=O)[O-])o1)N1CCCCC1 39.8 µM [inhibitor, single point]
CCN1/C(=C\C=C2\C(=O)N(C)C(=S)N2C)Sc2ccccc21 39.8 µM [inhibitor, single point]
CCN(CC)c1ccc(/C=N/NC(=O)c2c(Cl)c(C)nn2C)cc1 28.2 µM [inhibitor, partial curve]
O=C(COC(=O)c1cc(NS(=O)(=O)c2cccs2)ccc1O)Nc1ccc(F)c(F)c1F 28.2 µM [inhibitor, partial curve]
O=C1CC(c2ccc(Cl)c(Cl)c2)CC(O)=C1C=NCCN1CCNCC1 (centres undefined) 35.5 µM [inhibitor, single point]
COC(=O)c1c(N)n(CCCN2CCOCC2)c2nc3ccccc3nc12 28.2 µM [inhibitor, partial curve]
CCn1ccc(-c2ccccc2)c(C#N)c1=O 39.8 µM [inhibitor, single point]
Cc1ccc(C(=O)N/C(=C/c2ccc(-c3cccc([N+](=O)[O-])c3)o2)C(=O)NCCCN(C)C)cc1 28.2 µM [inhibitor, partial curve]
COC(=O)c1cc2c([nH]c3ccccc32)c(C)n1 39.8 µM [inhibitor, single point]
COCc1cc(C)nc(SCC[N+](C)(C)CC(=O)c2ccccc2)c1C#N 44.7 µM [inhibitor, single point]
CCC(C)(C#CCN1CCCCC1)OCCC#N (centres undefined) 39.8 µM [inhibitor, single point]
Cc1ccc(C(=O)O)cc1N=Cc1cc(Br)cc(Br)c1O 39.8 µM [inhibitor, single point]
c1ccc(Cn2nnc3c(NCC4CCCO4)ncnc32)cc1 (centres undefined) 14.1 µM [inhibitor, partial curve]
COc1cc(CNCCCN2CCOCC2)c(Br)cc1OCC(=O)Nc1ccccc1C 44.7 µM [inhibitor, single point]
COc1ccc2cc(C#N)c(Nc3cccc(F)c3)nc2c1 39.8 µM [inhibitor, single point]
COc1cc2oc(=O)cc(-c3ccc(-c4ccc(F)c(Cl)c4)cc3)c2c(OC)c1OC 28.2 µM [inhibitor, partial curve]
CCOC(=O)C1CCN(C(=O)Nc2ccc3nccnc3c2)CC1 35.5 µM [inhibitor, single point]

Potency, active:
CC(C)c1ccc(N2C(=O)CC(Sc3ncn[nH]3)C2=O)cc1 (centres undefined) 0.126 µM
CCCCn1nnc(NC(=S)NC(=O)c2ccc(-c3cccc(Cl)c3Cl)o2)n1 3.55 µM
CC1CCN(c2nc3c(c(=O)[nH]c(=O)n3C)n2CC(C)CSc2nnnn2-c2ccccc2)CC1 (centres undefined) 20 µM
O=C(C1=C[C@@H](c2ccccc2)C[C@@H](OCc2ccc(CO)cc2)O1)N1CCCCCCC1 25.1 µM
COc1ccc([N+](=O)[O-])cc1N(CC(=O)O)S(C)(=O)=O 31.6 µM
CC1=CC(C)(C)NC(=S)N1c1cccc2ccccc12 22.4 µM
CCN(CC)C(=O)CSc1nc(C)cc(-c2cccs2)c1C#N 12.6 µM
Cc1cc2cc(CN(Cc3ccc4c(c3)OCO4)C(=O)c3cnccn3)c3nnnn3c2cc1C 14.1 µM
CC(C)N1CCC(=NNc2ccc(S(=O)(=O)N3CCOCC3)cc2[N+](=O)[O-])CC1 28.2 µM
COc1ccc(CNC(=O)CN(Cc2ccc(Cl)cc2)S(=O)(=O)c2ccccc2)cc1 2.24 µM
CCCCC(=O)NNC(=S)NC(=O)c1ccc([N+](=O)[O-])cc1 5.62 µM
COC(=O)c1cn[nH]c1NC(=S)Nc1ccc(C)cc1Cl 7.94 µM
COc1ccc(NS(=O)(=O)c2ccc3oc(SC4CCOC4=O)nc3c2)cc1 (centres undefined) 0.562 µM
COc1ccc(NCC(=O)N/N=C(\C)c2cc3ccccc3o2)cc1 25.1 µM

activity, negative = inhibition, inactive:
CN(C)CCCn1c2c3ccccc3ccc2c2oc(=O)c3ccccc3c21 1.28% [at 13.5 µM]
CC(C)C[C@H](NC(=O)C1(c2ccccc2)CCN(C(=O)[C@H]2CSCN2C(=O)OC(C)(C)C)CC1)C(=O)O -4.41%
COc1cc(/C=C(\NC(C)=O)C(=O)NC(C)(C)C)ccc1OC(C)=O 9.19%
C/C(=N\Nc1ccccn1)c1ccc(C(C)C)cc1 2.85%
CCCC1=[N+](CC(=O)c2ccc(C)cc2)CCn2cccc21 7.14%
CSC1=N/C(=C\c2ccc(C)s2)C(=O)S1 -14.2%
CC(C(=O)O)N1C(=O)/C(=C/C=C/c2ccco2)SC1=S (centres undefined) -16.1%
COc1ccc2[nH]c3c(=O)n(Cc4ccc(C(=O)N5CCCC5)cc4)c(=S)[nH]c3c2c1 2.26%
Cc1ccc(CSc2ncnc3c2cnn3Cc2ccccc2)cc1 -8.19%
Cc1ccc(CC(=O)NCc2ccc3c(c2)OCO3)cc1 -8.71%
CCOc1cc(NC(=S)NC)c(OCC)cc1NC(=O)c1ccc(OC)cc1 -11.5%
CCOC(=O)c1c(NC(=S)Nc2ccc(Cl)cc2)sc(C)c1C -3.9%
Cc1ccc(OCC(=O)N/N=C/c2c[nH]c3ccccc23)c([N+](=O)[O-])c1 10.4%
O=C(c1cc(C(F)(F)F)cc(C(F)(F)F)c1)N1CCC2(CCCN(c3ccncc3)C2)CC1 15.5%
O=C(CCCN1C(=O)CCC1=O)Nc1ccc(Br)cc1F 20.5%
O=C(Nc1cccc2nsnc12)c1ccc(-c2ccc(Br)cc2)o1 22%
Cc1nc2cc(C(F)(F)F)ccc2n1C 2.38%
C=CCn1c(SCCN2CCCCC2)nc2c1c(=O)[nH]c(=O)n2C -10.7%
CCCNS(=O)(=O)c1ccc(-n2cnnn2)c(OC)c1 -7.18%
O=C(Nc1nc(-c2ccccc2)c(C(=O)c2ccccc2)s1)c1ccc(S(=O)(=O)N2CCCC2)cc1 4.55%
Cn1ncc(N=Cc2ccccc2O)c1C(=O)Nc1ccccc1 -8.61%
